Inconclusive means that the source gave no clear call. Such entries were picked first, then a sample of the others. No potency is given beside an inconclusive call; the fits are too rough. The source made the active and inactive calls. Calls come from the whole dose curve; as a rule, active = well fitted inhibition curve with a large enough effect; inconclusive = small, poorly fitted or top-dose-only effect, or effect the other way; inactive = flat fitted curve, though single readings scatter.
target: Ubiquitin carboxyl-terminal hydrolase 2 (Homo sapiens) (UniProt O75604); assay: Confirmation Assay for Inhibitors of Ubiquitin-specific Protease USP2a Using CHOP2 as the Reporter; settings: USP2 core, Ub-CHOP2 coupled reporter fluorescence; series mostly up to 38.3 µM; activity change, negative = inhibition: at the top concentration; note: nearly all actives have a fitted effect of over 55% in size;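 for activity change, negative = inhibition: plate controls were DMSO wells for no effect and full inhibition by NEM control for full effect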
Method in brief: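 USP2 core (10 nM final) was preincubated with compound for 30 min at RT in Tris-HCl pH 8.0, CaCl2, beta-mercaptoethanol, CHAPS. Ub-CHOP2 and reporter substrate (25 nM final each) were added, and fluorescence (Ex 485/Em 531 nm) was read after 60 min.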
Potency is the fitted concentration of half-maximal effect; tags give direction and shape of the fitted curve.

Chain of UniProt O75604 (O75604 whole entry, looked up): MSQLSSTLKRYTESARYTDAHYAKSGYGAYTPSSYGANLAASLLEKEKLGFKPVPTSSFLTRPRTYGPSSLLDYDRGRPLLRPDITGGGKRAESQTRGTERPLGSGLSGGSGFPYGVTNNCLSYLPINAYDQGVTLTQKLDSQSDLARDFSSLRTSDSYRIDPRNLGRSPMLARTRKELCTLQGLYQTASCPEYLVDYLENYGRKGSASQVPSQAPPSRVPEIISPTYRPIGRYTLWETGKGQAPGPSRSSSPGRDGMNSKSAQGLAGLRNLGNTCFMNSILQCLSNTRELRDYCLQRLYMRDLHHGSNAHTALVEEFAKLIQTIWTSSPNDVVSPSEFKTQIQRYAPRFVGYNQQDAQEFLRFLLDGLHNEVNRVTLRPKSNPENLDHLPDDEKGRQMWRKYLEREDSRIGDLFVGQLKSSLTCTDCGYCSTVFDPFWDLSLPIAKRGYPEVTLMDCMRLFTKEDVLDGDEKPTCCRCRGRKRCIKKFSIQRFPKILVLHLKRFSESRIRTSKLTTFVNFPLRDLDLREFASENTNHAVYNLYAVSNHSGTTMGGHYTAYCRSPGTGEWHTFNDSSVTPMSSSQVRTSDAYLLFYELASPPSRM

SMILES | Potency | activity change, negative = inhibition
O=C(Nc1ccccc1)Nc1snnc1C(=O)Nc1cccc(O)c1 | inconclusive [inhibitor, single point] | –
Cc1ccc(S(=O)(=O)Nc2ccccc2-c2ccccc2NS(=O)(=O)c2ccc(C)cc2)cc1 | inconclusive [inhibitor, single point] | –
Cc1cc(/C=C2\C(=N)N3N=C(c4ccco4)SC3=NC2=O)c(C)n1Cc1ccccc1 | active: 16.5 µM | –
CCCCCCCCCCOC(=O)Cn1c(COc2cccc(C)c2)[n+](C)c2ccccc21 | inconclusive [inhibitor, single point] | –
Cc1ccc(C2=[N+]([O-])C(C)N(O)C2(C)C)o1 (configuration not stated) | – | inactive: -1.21%
CC1(C)CC(=O)C=C(NCc2cccs2)C1 | – | inactive: -0.275%
C#CCOCCOCCOCCNc1nc(N2CCN(C(=O)CCCCCCCCCCNC(=O)[C@@H](CCC(=O)O)n3cc(CCCCCN)nn3)CC2)nc(N2CCN(C(=O)CCCCCCCCCCNC(=O)[C@H]([C@@H](C)CC)n3cc(CCCCCN)nn3)CC2)n1 | active: 11.7 µM | –
COc1ccccc1C1NC(c2ccccc2OC)C(C)C(=O)C1C (configuration not stated) | – | inactive: 1.67%
O=C(Nc1nnc(SCCC2OCCO2)s1)C1CC(=O)N(c2ccc(F)cc2)C1 (configuration not stated) | inconclusive [inhibitor, single point] | –
CCc1ccccc1OCC(=O)Nc1ccc(N2CCCC2)cc1C | inconclusive [inhibitor, single point] | –
O=C1NC(=Nc2ccccc2)S/C1=C\C=C\c1ccco1 | inconclusive [inhibitor, single point] | –
COC(=O)[C@@]12CCCCN1[C@H](c1ccc(-c3ccc(Cl)c(Cl)c3)cc1)[C@H]1C(=O)N(C)C(=O)[C@H]12 | – | inactive: 0.0461%
Cc1ccc(C(=O)Oc2coc(CSc3nnc(NC(=O)c4cccs4)s3)cc2=O)cc1 | inconclusive [inhibitor, partial curve, poor fit] | –
COc1cc2c(ccc3cc(OC)c(OC)c(O)c32)cc1O | inconclusive [inhibitor, single point] | –
N=C1/C(=C\c2ccc(-c3cccc(Cl)c3)o2)C(=O)N=C2SC=C(c3ccccc3)N12 | inconclusive [inhibitor, single point] | –
O=S(=O)(Nc1ccc(O)c(Sc2nc3ccccc3s2)c1)c1cccc2ccccc12 | inconclusive [inhibitor, single point] | –
Cc1cc(OCC(=O)Nc2ccc(N3CCCC3)cc2)cc(C)c1Cl | inconclusive [inhibitor, single point] | –
Cc1cccc(OCC(=O)N/N=C/C=C/c2ccco2)c1 | inconclusive [inhibitor, single point] | –
O=C(Cn1cnc2sc(-c3ccccc3)cc2c1=O)NCc1ccco1 | inconclusive [inhibitor, single point] | –
COc1ccc(-c2nnc(Nc3ccc(S(=O)(=O)Nc4nccs4)cc3)c3ccccc23)cc1 | inconclusive [inhibitor, partial curve, poor fit] | –
CCCCNC(=O)Nc1ccccc1C(=O)NCc1ccco1 | – | inactive: -4.43%
CCCCCCCCCCOC(=O)Cn1c(COc2ccccc2C)[n+](C)c2ccccc21 | inconclusive [inhibitor, single point] | –
CC1=NN(c2ccc(C(=O)O)cc2)C(=O)/C1=C\c1ccc(OC(=O)c2cccs2)cc1 | inconclusive [inhibitor, single point] | –
Cc1ccc(NC(=O)CS(=O)CC(=O)Nc2ccc(N3CCOCC3)cc2)cc1Cl (configuration not stated) | inconclusive [inhibitor, partial curve, poor fit] | –
C=C1c2c(Cl)ccc(O)c2C(O)=C2C(=O)[C@]3(O)C(O)=C(C(N)=O)C(=O)[C@@H](N(C)C)[C@@H]3[C@@H](O)C12 (some centres not stated) | inconclusive [inhibitor, single point] | –
CCCOc1ccc(N2C(=O)CC(NCCc3ccc(S(N)(=O)=O)cc3)C2=O)cc1 (configuration not stated) | – | inactive: 0.466%
O=C(NC1CCCCC1)C(c1ccco1)N(Cc1ccco1)C(=O)c1ccco1 (configuration not stated) | – | inactive: 1.34%

From PubChem BioAssay AID493168 (National Center for Advancing Translational Sciences (NCATS), 2011)
